Hit rate of the full screen: of about 45,000 compounds, about 200 (0.44%) were called active. Roughly 7% stayed inconclusive and do not appear here. Calls follow the shape of the dose curve; as a rule, active = well fitted activation curve with a large enough effect; inconclusive = small, poorly fitted or top-dose-only effect; inactive = no such curve, though single readings can be large or run the other way. This is one part of the list.
assay: qHTS of TDP-43 Inhibitors: NCGC Sytravon Library Screen; conditions: yeast TDP-43 toxicity rescue, BacTiter-Glo growth, 24 h; series mostly up to 46.1 µM; growth rescue (activation): at the top concentration; also: 0% is about no effect; nearly all actives have a fitted effect of over 55% in size
Summary of the method: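 TDP-43-expressing yeast, pregrown in raffinose, seeded at OD600 0.02 in galactose medium with compound for 24 hr at 30 deg C. Growth read by BacTiter-Glo luminescence, so rescue of toxicity appears as activation.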

Row | SMILES | growth rescue (activation)
1 | CCN(CC)CCNC(=O)c1ccccc1N | inactive: -16.5%
2 | CN(C)C(CNC(=O)c1ccccc1C(F)(F)F)c1ccco1 (stereo not drawn) | inactive: -27.2%
3 | Cc1nc(N2CCOCC2)[nH]c(=O)c1C | inactive: 8.92%
4 | CCOc1ccc(Nc2nc(NCC3CCCO3)c3ccccc3n2)cc1 (stereo not drawn) | inactive: 23.1%
5 | CS(=O)(=O)c1ccc(C(=O)NNC(=O)c2cc(-c3ccccc3)n[nH]2)cc1 | inactive: -0.208%
6 | COc1ccccc1N(CC(=O)Nc1ccc(Cc2ccncc2)cc1)S(=O)(=O)c1ccccc1 | inactive: -10.9%
7 | O=C(COC(=O)C1CCC1)Nc1ccc(Cl)cn1 | inactive: -1.31%
8 | Cc1cc(NC(=O)COC(=O)C2CC(=O)N(c3ccccc3)C2)no1 (stereo not drawn) | inactive: -15.5%
9 | COc1ccc(/C=C2\SC(=S)N(CC(=O)NCCO)C2=O)cc1 | inactive: -3.03%
10 | CNC(=O)CN(c1ccc(Oc2ccccc2)cc1)S(=O)(=O)c1ccc(C)cc1 | inactive: 7.04%
11 | Cc1cc(C(=O)OCC(=O)NCc2cccs2)ccc1[N+](=O)[O-] | inactive: 11.9%
12 | Cc1cc(CNC(=O)c2cc(COc3ccc(F)c(F)c3)on2)nn1C | inactive: 24.4%
13 | Cc1cc(=O)[nH]c(SCC(=O)Nc2ccc(C)c(S(=O)(=O)N3CCCCC3)c2)n1 | inactive: 25.9%
14 | CCOC(=O)C1(C)CCN1C(=O)c1ccc(Cl)cc1Cl (stereo not drawn) | inactive: 23.3%
15 | COc1ccc(NC(=O)/C(C#N)=C\C=C\c2ccco2)cc1 | inactive: 1.39%
16 | CS(=O)(=O)N(CCc1ccccc1)CC(=O)NCc1ccccc1Cl | inactive: 7.98%
17 | O=C(CSc1ccccc1)N/N=C/c1ccccc1O | inactive: 14.2%
18 | COCCNC(=O)NC12CC3(C)CC(C)(CC(C)(C3)C1)C2 | inactive: 11.6%
19 | O=C1CCC(C(=O)N2CCN(c3ccccc3)CC2)CN1CC1CCCCC1 (stereo not drawn) | inactive: 0.358%
20 | Cc1cccc(C)c1NC(=S)N1CCCN(Cc2ccc(F)cc2)C1 | inactive: 12.7%
21 | Cn1c(=O)[nH]c2c(nc(-c3ccc(Cl)cc3)n2C)c1=O | inactive: 9.49%
22 | O=C(COc1ccccc1)NCC(=O)Nc1cccc(S(=O)(=O)NC2=NCCC2)c1 | inactive: 0.026%

Row | SMILES | growth rescue (activation)
23 | Cc1cc(C)c2nc(Nc3nc(CSc4nc5ccccc5[nH]4)cc(=O)[nH]3)nc(C)c2c1 | inactive: -18.1%
24 | CSc1nc(-c2ccccc2)nc(NC(=O)C(C)C)c1C(C)=O | inactive: 9.82%
25 | CCOc1ccc(N(C(=O)c2snc(C(N)=O)c2N)C(C)C(=O)NC2CCCCC2)cc1 (stereo not drawn) | inactive: 15.5%
26 | Cc1cc(NC(=O)c2ccccc2-c2ccccc2C(=O)O)no1 | inactive: -7.39%
27 | O=C(CCCc1ccccc1)Nc1cccc(C(=O)O)c1 | inactive: 3.22%
28 | COc1cc(CCC(=O)OCC(=O)Nc2ccccc2C(C)C)cc(OC)c1OC | inactive: 29%
29 | COc1ccc(/C=N/NC(=O)c2ccncc2)c(C(=O)O)c1OC | inactive: 6.13%
30 | COc1cccc(/C=C/C(=O)OCC(=O)NC2CCCCCCC2)c1 | inactive: 8.55%
31 | COc1ccc(CN2CCN(CCc3ccccc3)C(CCO)C2)c(O)c1 (stereo not drawn) | inactive: -5.37%
32 | CCOC(=O)C(=O)Nc1ccccc1C(=O)OC | inactive: 24.1%
33 | CC(=O)NC(CC(=O)NCCOc1ccccc1F)c1ccccc1 (stereo not drawn) | inactive: -1.95%
34 | CC(C)(C)c1ccc(C(=O)N2CCC2(C)C(=O)Nc2ccc3[nH]ncc3c2)cc1 (stereo not drawn) | inactive: 18.8%
35 | Cc1cc(C(=O)COC(=O)c2ccc(O)cc2)c(C)n1CC1COc2ccccc2O1 (stereo not drawn) | inactive: -3.47%
36 | Cc1csc(N/N=C/c2ccccn2)n1 | inactive: 19.8%
37 | O=C(C[n+]1cc(-c2ccccc2)n2c1CCCCC2)c1ccc(Cl)cc1 | inactive: 11%
38 | CC(=O)c1cccc(NC(=O)Nc2ccccc2)c1 | inactive: 3.77%
39 | O=C1c2ccccc2C(=O)C1c1ccc(O)cc1 | inactive: 15.9%
40 | COc1ccc(S(=O)(=O)N2CCC(C(=O)NCC3CC3)CC2)cc1 | inactive: -21.4%
41 | NC(=O)CN1CCN(C2CC(=O)N(CCc3ccccc3)C2=O)CC1 (stereo not drawn) | inactive: -7.7%
42 | Cc1cc(C)cc(-n2c(SCC(=O)Nc3cccc(S(=O)(=O)NC4=NCCCCC4)c3)nc3ccccc3c2=O)c1 | inactive: 22.9%
43 | O=C(Nc1ccn(C2CC(OC(=O)c3ccccc3)C(CO)O2)c(=O)n1)c1ccccc1 (stereo not drawn) | inactive: 16.8%
44 | COc1ccc(-n2cnnc2SCC(=O)Nc2cc(C)on2)cc1 | inactive: 15.2%

Row | SMILES | growth rescue (activation)
45 | Cc1cccc(N(Cc2cc3ccccc3[nH]c2=O)S(=O)(=O)c2ccccc2)c1 | inactive: -12.4%
46 | CCCCCCNC(=O)C(=O)NCCc1ccc(Cl)cc1 | inactive: 11.9%
47 | Cc1cc(-n2cnnn2)cc(C)c1S(=O)(=O)N(C)c1ccccc1 | inactive: 24.3%
48 | Cc1cc(C)c(C(=O)O)c(Cl)n1 | inactive: 12.1%
49 | COc1ccc(NC(=O)C2CCN(c3nc(C)nc4c3CCC4)CC2)cc1 | inactive: -5.77%
50 | CCOc1ccc(/C=N/NC(=O)c2[nH]c3ccc(C)cc3c2C)cc1 | inactive: 7.32%
51 | Cc1ccc(OCCNC(=O)c2ccc3ccccc3n2)cc1 | inactive: -42.6%
52 | CS(=O)(=O)C1=NN2C(=N)/C(=C\c3ccc(OCCOc4ccccc4)cc3)C(=O)N=C2S1 | inactive: 11.2%
53 | COc1ccc(CNC(=O)c2[nH]c(C)c(C(C)=O)c2C)cc1 | inactive: 4.52%
54 | CCCNC(=O)C1(C)CCCN(Cc2cccs2)C1 (stereo not drawn) | inactive: 1.74%
55 | COc1ccc(C(=O)COC(=O)c2c(C)noc2C)cc1Cl | inactive: -1.21%
56 | CCOC(=O)c1sc2ncn(/N=C/c3ccc(O)cc3)c(=O)c2c1C | inactive: 9.54%
57 | COc1ccc(NC(=O)c2coc(C)c2)cc1 | inactive: 7.44%
58 | COc1ccccc1CNC(=O)COc1ccc2c(c1)CCC2 | inactive: 31.7%
59 | COc1ccc([N+](=O)[O-])cc1NC(=O)CCN1CCN(c2ccccc2OC)CC1 | inactive: -6.89%
60 | O=C(COC(=O)c1ccc(F)c(S(=O)(=O)N2CCOCC2)c1)Nc1ccc2c(c1)OCO2 | inactive: 7.09%
61 | O=C(Nc1nc2nccc(-c3ccccc3)n2n1)c1ccc(F)cc1 | inactive: -2.25%
62 | O=C(N=Nc1c(O)[nH]c2ccccc12)c1ccc(CN2CCOCC2)cc1 | inactive: 1.7%
63 | COc1ccc(NS(=O)(=O)c2ccc(C(=O)NCC3(N4CCOCC4)CCCCC3)cc2)cc1 | inactive: -6.65%
64 | COc1ccc(-c2nnnn2C)cc1S(=O)(=O)Nc1ccc(C)cc1C | inactive: 14.1%
65 | CN1CCN(/N=C2/C(=O)Nc3ccc([N+](=O)[O-])cc32)CC1 | inactive: -20.7%
66 | CC(C)CNC(=O)COC(=O)c1ccc2c(c1)C(=O)N(Cc1ccco1)C2=O | inactive: -16.8%

Row | SMILES | growth rescue (activation)
67 | CC(Sc1nnc(CNC(=O)c2ccccc2F)n1C)C(=O)Nc1nccs1 (stereo not drawn) | inactive: -17.2%
68 | COc1ccc(-c2csc(NC(=O)CSc3nc4ccccc4c(=O)[nH]3)n2)cc1 | inactive: 11%
69 | Cc1ccc(S(=O)(=O)N2CCOCC2)cc1C(=O)NCCCn1ccnc1 | inactive: -4.31%
70 | CC(=O)c1ccc(OCCCC(=O)Nc2cccc(S(=O)(=O)N3CCOCC3)c2)cc1 | inactive: 3.77%
71 | CCc1ccc(NC(=O)Cn2c(=O)oc3cc(S(=O)(=O)N4CCCCCC4)ccc32)cc1 | inactive: 6.46%
72 | CCOc1ccccc1NC(=O)CN(c1ccc(OC)cc1OC)S(=O)(=O)c1ccccc1[N+](=O)[O-] | inactive: 17.2%
73 | CC1=C(C(=O)OC2CCCCC2)C(c2ccc(F)cc2)NC(=O)N1 (stereo not drawn) | inactive: 11.7%
74 | COc1ccccc1/C=C(\C#N)C(=O)Nc1ccc(S(N)(=O)=O)cc1 | inactive: -22.4%
75 | O=C(NCCNC(=O)c1cc(F)cc(F)c1)c1cc(F)cc(F)c1 | inactive: -3.28%
76 | COc1cc(/C=N/n2c(-c3ccc4c(c3)NC(=O)CO4)csc2=Nc2cccc(C)c2)ccc1O | inactive: 28.4%
77 | CCNC(=O)C1(C)CCCN1C(=O)c1ccc(C#N)cc1 (stereo not drawn) | inactive: -5.1%
78 | O=C(c1ccccc1)c1cc(Cl)ccc1N1C(=O)C=CC1=O | inactive: -94.2%
79 | COC(=O)c1cn(-c2ccccc2)c(=O)c2ccccc12 | inactive: 13.3%
80 | CCCC(C(=O)NC(C)(C)C)N(CC1CCCO1)C(=O)CNS(=O)(=O)c1ccc(F)cc1 (stereo not drawn) | inactive: 0.0036%
81 | CCOc1ccc(S(=O)(=O)NNS(=O)(=O)c2ccc(C)cc2C)cc1 | inactive: 13.5%
82 | CCC(=O)OCC(=O)Nc1ccc(OC)cc1[N+](=O)[O-] | inactive: -4.47%
83 | CC(C)CCNC(=O)CCn1c(=S)oc2ccccc21 | inactive: 9.03%
84 | CCOC(=O)c1cc(NC(=O)N(C)C2CCCCC2)c(C)nc1C | inactive: 6.37%
85 | COc1ccc(NC(=O)Cc2c(C)n(C(=O)c3ccc(Cl)cc3)c3ccc(OC)cc23)cc1 | inactive: 3.33%
86 | CC(C)CC(=O)Nc1ccc(C(=O)NN2C(=O)c3ccccc3C2=O)cc1 | inactive: 10.8%
87 | C=CCc1c(O)c(CC)cc2c(C)cc(=O)oc12 | inactive: 29.7%
88 | COC(=O)c1ccc(NC(=O)CCn2cccc2)cc1 | inactive: 31.4%

Row | SMILES | growth rescue (activation)
89 | Cc1ccc(C(=O)NCCSC(C)(C)C)cc1[N+](=O)[O-] | inactive: -25%
90 | COc1ccc(C(=O)NNC2=C(C(=O)C(F)(F)F)CCC2)cc1 | inactive: 14.9%
91 | NC(=O)C1(N2CCCCC2)CCN(C(=O)Nc2ccc(C(F)(F)F)cc2)CC1 | inactive: -4.19%
92 | Cc1cc(Oc2ccc(C)c(Cl)c2)nc(SCC(=O)c2ccccc2)n1 | inactive: 16.8%
93 | CCSc1nnc(NC(=O)c2ccc3nc[nH]c3c2)s1 | inactive: 2.38%
94 | COc1ccc(OC)c(N(CC(=O)NN=C2CCN(C)CC2)S(=O)(=O)c2ccccc2)c1 | inactive: 1.2%
95 | CC(=O)Nc1ccc(C(=O)N2CCCC(c3cc(C(=O)Nc4ccccc4)no3)C2)cc1 (stereo not drawn) | inactive: -14.7%
96 | O=C1CSC(=S)N1/N=C/c1ccc2c(c1)OCCO2 | inactive: -10.4%
97 | COCCn1c(N)c(Sc2ccccc2)c(=O)[nH]c1=O | inactive: -15.5%
98 | Cc1ccc2cc(C)c(N3CCC(C)CC3)nc2c1 | inactive: -6.48%
99 | O=C(CSc1n[nH]c(=O)[nH]c1=O)NC1CC1 | inactive: 10.1%
100 | Cc1cccc(C(=O)OCc2cc(=O)oc3c(C)c(C)ccc23)c1O | inactive: -4.56%
101 | Cc1cc(C)nc(N/N=C/c2cccc(Cl)c2)n1 | inactive: 3.06%
102 | Cn1c(=O)c2cc(NC(=O)NCc3ccc(Cl)cc3Cl)ccc2n1Cc1ccc(F)cc1 | inactive: 15.5%
103 | Cc1ccc(N(CC(=O)NC2CCCC2)C(=O)CCC(=O)Nc2ccccn2)cc1 | inactive: 3.76%
104 | O=S(=O)(c1ccccc1)N1CCC2(CC1)CO2 | inactive: 17.3%
105 | N#CCC(=O)N/N=C/c1c(-c2ccccc2)n(-c2ccccc2)c2ccccc12 | inactive: 5.47%
106 | COc1ccccc1NS(=O)(=O)c1cc(NC(=O)c2cccs2)ccc1N1CCCCC1 | inactive: 3.99%
107 | COc1ccc(Cn2c(-c3ccc(C)cc3)nc3c(c(=O)c4ccccc4n3C)c2=O)cc1 | inactive: 2.69%
108 | Cc1cccc(C)c1OCC1CNC(=O)O1 (stereo not drawn) | inactive: 2.61%
